Assay results as given in PubChem BioAssay (NCI).
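Where inhibition never reached the appropriate level, the endpoint shown equals the highest concentration tested. Otherwise, values were interpolated linearly from a five-concentration, 48-hour dose response in 96-well plates. GI50 = concentration required for 50% inhibition of growth. TGI denotes the concentration required for complete inhibition of growth.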

Each compound was assayed on NCI-H322M lung (assay: NCI anticancer screen, dose series, 48 h).

Which GI50 does the source give for `Cn1cc(-c2cc(N)n3nc(-c4c[nH]c5ccc(Cl)cc45)cc3n2)c2cccnc21` here?
Its GI50 is 1910 nM.

And the TGI?
Its TGI is 4800 nM.

What does the source list for `O=C1CCC(N2C(=O)c3cccc(NCCCCCC(=O)N4CCN(c5ccc6nc7c(nc6c5C(F)(F)F)C(=O)c5ncccc5C7=O)CC4)c3C2=O)C(=O)N1` (stereo not drawn)?
GI50: 165 nM; TGI: 576 nM

Which GI50 does the source give for `CCCCCCCCCCCCCCCCCCCC(=O)NCCc1c[nH]c2ccc(OC(=O)CCCC(=O)OCCOOCCOOCCOOCCOOCCOOCCOOCCOOCCOOCCOOCCOOCCOOCCOC)cc12` here?
Its GI50 is > 100000 nM.

What about the TGI of the same compound?
Its TGI is > 100000 nM.

Which results are given for `CN1CCN(C(=O)CCN(C(=O)Oc2cc3c(c4ccccc24)[C@H](CCl)CN3C(=O)c2cc3cc(OCCCN4CCC4)ccc3[nH]2)[C@H]2CCSSC2)CC1`?
GI50: 191 nM; TGI: 692 nM
